Test results as given in PMC5892938.
The list shows a part of the results. At the low end of the ranking, values are background and their order means little.
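Note: DESeq read counts versus GST-SBP nonspecific binding control pulldown.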

These sequences were tested against GST-SBP-SLBP (stem-loop binding protein) (UniProt Q14493) (assay: targeted RNA Bind-n-Seq). Settings: RBNS binding buffer: 25 mM Tris pH 7.5, 150 mM KCl, 3 mM MgCl2, 0.1% Tween, 0.5 mg/mL BSA, 1 mM DTT; 27 nM protein, 750 pM RNA pool; temperature not stated; high values mean tight binding.
“GGUCACGUCUCAAUCAACUCAUCGUCAGGAGUUUUCUCCUGUUUACUCAACAGCUCGCAGUCAAG” showed a binding signal (log2 fold change) of 0.105.
Sequence “GGUCACGUCUCAAUCAACUCAUUUCCAGGAGUUUACUCCUGCAAUUUCAACAGCUCGCAGUCAAG” has a binding signal (log2 fold change) of 0.215.
“GGUCACGUCUCAAUCAACUCUUCCUCCAGGGAAAUCCCUGGUUUUUUCAACAGCUCGCAGUCAAG” gave a binding signal (log2 fold change) of -0.0926.
Work on “GGUCACGUCUCAAUCAACUCUUUUCCCAGGGAAAACCCUGGCUUACUCAACAGCUCGCAGUCAAG” yielded a binding signal (log2 fold change) of 0.0362.
With “GGUCACGUCUCAAUCAACUCAUAAGAGGGGGGGAAAACCCCUUUACCCUCGUCAUCAACAGCUCGCAGUCAAG” the binding signal (log2 fold change) was 0.103.
With “GGUCACGUCUCAAUCAACUCUUUUCCAGGAGUUUACUCCUGUAUACUCAACAGCUCGCAGUCAAG” the binding signal (log2 fold change) was 0.0395.
“GGUCACGUCUCAAUCAACUCUAUCCCAGGAGUUUCCUCCUGCUUUCUCAACAGCUCGCAGUCAAG” was tested, and the binding signal (log2 fold change) was -0.125.
“GGUCACGUCUCAAUCAACUCUCUCGAGGGGGGGAAAACCCCUUUACCCUCUACAUCAACAGCUCGCAGUCAAG” gave a binding signal (log2 fold change) of -0.101.
“GGUCACGUCUCAAUCAACUCUUAAGAGGGGGGGAAAACCCCUUUGCCCUCAUCAUCAACAGCUCGCAGUCAAG” was tested, and the binding signal (log2 fold change) was -0.114.
Work on “GGUCACGUCUCAAUCAACUCAAUAGAGGGGGGGAAAACCCCUUUACCCUCCAACUCAACAGCUCGCAGUCAAG” yielded a binding signal (log2 fold change) of 0.254.
Work on “GGUCACGUCUCAAUCAACUCCUCUGAGGGGGGGAAAACCCCUUUACCCUCCAUAUCAACAGCUCGCAGUCAAG” yielded a binding signal (log2 fold change) of -0.077.
With “GGUCACGUCUCAAUCAACUCUUCGGAGGGGGGGAAAACCCCUUUACCCUCGUCAUCAACAGCUCGCAGUCAAG” the binding signal (log2 fold change) was 0.152.
“GGUCACGUCUCAAUCAACUCAUUUUCAGGAGUUUACUCCUGCUAAUUCAACAGCUCGCAGUCAAG” showed a binding signal (log2 fold change) of 0.0742.
“GGUCACGUCUCAAUCAACUCAUUUCCCAGGGAAAGCCCUGGCUUACUCAACAGCUCGCAGUCAAG” gave a binding signal (log2 fold change) of 0.091.
Sequence “GGUCACGUCUCAAUCAACUCUACUUCCAGGGAAAGCCCUGGUUUAUUCAACAGCUCGCAGUCAAG” has a binding signal (log2 fold change) of 0.126.
“GGUCACGUCUCAAUCAACUCUAUCCCCAGGGAAACCCCUGGCAUUCUCAACAGCUCGCAGUCAAG” gave a binding signal (log2 fold change) of -0.123.
In the case of “GGUCACGUCUCAAUCAACUCAGUCCCCAGGGAAACCCCUGGCAUAUUCAACAGCUCGCAGUCAAG”, the binding signal (log2 fold change) is reported as 0.0609.
Work on “GGUCACGUCUCAAUCAACUCCUUAGAGGGGGGGAAAACCCCUUUGCCCUCGUCAUCAACAGCUCGCAGUCAAG” yielded a binding signal (log2 fold change) of 0.203.
In the case of “GGUCACGUCUCAAUCAACUCUUUCCCCAGGGAAAGCCCUGGUAAAUUCAACAGCUCGCAGUCAAG”, the binding signal (log2 fold change) is reported as 0.0435.
Sequence “GGUCACGUCUCAAUCAACUCAUCUCCAGGAGUUUGCUCCUGCUAAUUCAACAGCUCGCAGUCAAG” has a binding signal (log2 fold change) of -0.0276.
For “GGUCACGUCUCAAUCAACUCCCUCGAGGGGGGGAAAACCCCUUUACCCUCUAUAUCAACAGCUCGCAGUCAAG”, the binding signal (log2 fold change) was 0.174.
“GGUCACGUCUCAAUCAACUCAAUCUCCAGGGAAAUCCCUGGCAUACUCAACAGCUCGCAGUCAAG” was tested, and the binding signal (log2 fold change) was -0.0198.
Sequence “GGUCACGUCUCAAUCAACUCCCUGGAGGGGGGGAAAACCCCUUUACCCUCAAAUUCAACAGCUCGCAGUCAAG” has a binding signal (log2 fold change) of -0.197.
Work on “GGUCACGUCUCAAUCAACUCUUUUCCAGGAGUUUCCUCCUGCAUACUCAACAGCUCGCAGUCAAG” yielded a binding signal (log2 fold change) of 0.112.
For “GGUCACGUCUCAAUCAACUCAAGUCCAGGAGUUUCCUCCUGUAAUCUCAACAGCUCGCAGUCAAG”, the binding signal (log2 fold change) was 0.0479.
“GGUCACGUCUCAAUCAACUCUAUCUCCAGGGAAAGCCCUGGUUAUCUCAACAGCUCGCAGUCAAG” gave a binding signal (log2 fold change) of 0.334.
For “GGUCACGUCUCAAUCAACUCAUCUUCCAGGGAAAGCCCUGGCUUUUUCAACAGCUCGCAGUCAAG”, the binding signal (log2 fold change) was -0.0377.
In the case of “GGUCACGUCUCAAUCAACUCUUCCUCAGGAGUUUCCUCCUGUAUACUCAACAGCUCGCAGUCAAG”, the binding signal (log2 fold change) is reported as -0.0324.
In the case of “GGUCACGUCUCAAUCAACUCAACUCCCAGGGAAACCCCUGGUAUAUUCAACAGCUCGCAGUCAAG”, the binding signal (log2 fold change) is reported as 0.106.
In the case of “GGUCACGUCUCAAUCAACUCUUAGGAGGGGGGGAAAACCCCUUUACCCUCAAUCUCAACAGCUCGCAGUCAAG”, the binding signal (log2 fold change) is reported as -0.175.
“GGUCACGUCUCAAUCAACUCAAACGAGGGGGGGAAAACCCCUUUACCCUCCAUAUCAACAGCUCGCAGUCAAG” gave a binding signal (log2 fold change) of 0.344.
“GGUCACGUCUCAAUCAACUCAGUCUCCAGGGAAACCCCUGGCAAAUUCAACAGCUCGCAGUCAAG” gave a binding signal (log2 fold change) of -0.418.
“GGUCACGUCUCAAUCAACUCAACUGAGGGGGGGAAAACCCCUUUACCCUCCAUAUCAACAGCUCGCAGUCAAG” gave a binding signal (log2 fold change) of -0.277.
“GGUCACGUCUCAAUCAACUCAAUGUCAGGAGUUUGCUCCUGCUUUCUCAACAGCUCGCAGUCAAG” was tested, and the binding signal (log2 fold change) was -0.0289.
“GGUCACGUCUCAAUCAACUCUCCAGAGGGGGGGAAAACCCCUUUACCCUCAUAAUCAACAGCUCGCAGUCAAG” gave a binding signal (log2 fold change) of -0.789.
“GGUCACGUCUCAAUCAACUCUAGUCCAGGAGUUUCCUCCUGUAAUUUCAACAGCUCGCAGUCAAG” gave a binding signal (log2 fold change) of -0.149.
“GGUCACGUCUCAAUCAACUCAAUCUCAGGAGUUUUCUCCUGCUAUUUCAACAGCUCGCAGUCAAG” was tested, and the binding signal (log2 fold change) was 0.339.
“GGUCACGUCUCAAUCAACUCAAUUUCCAGGGAAAUCCCUGGUUUAUUCAACAGCUCGCAGUCAAG” gave a binding signal (log2 fold change) of -0.0415.
Sequence “GGUCACGUCUCAAUCAACUCUAUAGAGGGGGGGAAAACCCCUUUACCCUCAAUUUCAACAGCUCGCAGUCAAG” has a binding signal (log2 fold change) of -0.228.
For “GGUCACGUCUCAAUCAACUCUUCUCCCAGGGAAACCCCUGGCAAUCUCAACAGCUCGCAGUCAAG”, the binding signal (log2 fold change) was 0.231.
“GGUCACGUCUCAAUCAACUCUAUUUCCAGGGAAAGCCCUGGUAUUUUCAACAGCUCGCAGUCAAG” gave a binding signal (log2 fold change) of 0.0351.
Work on “GGUCACGUCUCAAUCAACUCAAUCUCCAGGGAAAACCCUGGCUAUUUCAACAGCUCGCAGUCAAG” yielded a binding signal (log2 fold change) of 0.00637.
In the case of “GGUCACGUCUCAAUCAACUCUUUUUCAGGAGUUUUCUCCUGCAAAUUCAACAGCUCGCAGUCAAG”, the binding signal (log2 fold change) is reported as 0.142.
“GGUCACGUCUCAAUCAACUCAUUAGAGGGGGGGAAAACCCCUUUACCCUCAUCUUCAACAGCUCGCAGUCAAG” gave a binding signal (log2 fold change) of -0.4.
“GGUCACGUCUCAAUCAACUCUCAAGAGGGGGGGAAAACCCCUUUGCCCUCAACUUCAACAGCUCGCAGUCAAG” showed a binding signal (log2 fold change) of 0.148.
In the case of “GGUCACGUCUCAAUCAACUCUUUCUCCAGGGAAAUCCCUGGCAUUUUCAACAGCUCGCAGUCAAG”, the binding signal (log2 fold change) is reported as -0.0484.
Sequence “GGUCACGUCUCAAUCAACUCAUCCCCCAGGGAAACCCCUGGCUAACUCAACAGCUCGCAGUCAAG” has a binding signal (log2 fold change) of 0.0885.
Sequence “GGUCACGUCUCAAUCAACUCAUUUUCCAGGGAAAACCCUGGUAAUUUCAACAGCUCGCAGUCAAG” has a binding signal (log2 fold change) of -0.137.
Work on “GGUCACGUCUCAAUCAACUCUAUUUCAGGAGUUUACUCCUGUAUACUCAACAGCUCGCAGUCAAG” yielded a binding signal (log2 fold change) of -0.0451.
“GGUCACGUCUCAAUCAACUCAGUUUCCAGGGAAAUCCCUGGCUUAUUCAACAGCUCGCAGUCAAG” showed a binding signal (log2 fold change) of -0.121.
Work on “GGUCACGUCUCAAUCAACUCACAAGAGGGGGGGAAAACCCCUUUACCCUCAAUCUCAACAGCUCGCAGUCAAG” yielded a binding signal (log2 fold change) of -0.0692.
With “GGUCACGUCUCAAUCAACUCCCCAGAGGGGGGGAAAACCCCUUUGCCCUCAAUCUCAACAGCUCGCAGUCAAG” the binding signal (log2 fold change) was -0.197.
“GGUCACGUCUCAAUCAACUCAUUCUCAGGAGUUUACUCCUGCUAUUUCAACAGCUCGCAGUCAAG” was tested, and the binding signal (log2 fold change) was 0.0743.
Sequence “GGUCACGUCUCAAUCAACUCAAUGUCAGGAGUUUACUCCUGUUUUCUCAACAGCUCGCAGUCAAG” has a binding signal (log2 fold change) of -0.0179.
Work on “GGUCACGUCUCAAUCAACUCAUCUCCAGGAGUUUUCUCCUGCAUUCUCAACAGCUCGCAGUCAAG” yielded a binding signal (log2 fold change) of 0.0148.
Work on “GGUCACGUCUCAAUCAACUCAAUUCCAGGAGUUUCCUCCUGCUAAUUCAACAGCUCGCAGUCAAG” yielded a binding signal (log2 fold change) of 0.03.
“GGUCACGUCUCAAUCAACUCAAUCUCCAGGGAAACCCCUGGCAUUUUCAACAGCUCGCAGUCAAG” was tested, and the binding signal (log2 fold change) was -0.0834.
In the case of “GGUCACGUCUCAAUCAACUCAUAAGAGGGGGGGAAAACCCCUUUGCCCUCAGAAUCAACAGCUCGCAGUCAAG”, the binding signal (log2 fold change) is reported as -0.256.
“GGUCACGUCUCAAUCAACUCUUCAGAGGGGGGGAAAACCCCUUUACCCUCAUCUUCAACAGCUCGCAGUCAAG” showed a binding signal (log2 fold change) of 0.0819.
“GGUCACGUCUCAAUCAACUCAAUUUCAGGAGUUUUCUCCUGUAUGUUCAACAGCUCGCAGUCAAG” showed a binding signal (log2 fold change) of -0.0374.
“GGUCACGUCUCAAUCAACUCUUUCUCCAGGGAAACCCCUGGCUUUUUCAACAGCUCGCAGUCAAG” was tested, and the binding signal (log2 fold change) was 0.075.
“GGUCACGUCUCAAUCAACUCAAUUUCAGGAGUUUCCUCCUGCAUUCUCAACAGCUCGCAGUCAAG” gave a binding signal (log2 fold change) of -0.045.
“GGUCACGUCUCAAUCAACUCUAUUCCAGGAGUUUUCUCCUGCAUACUCAACAGCUCGCAGUCAAG” showed a binding signal (log2 fold change) of -0.0641.
Sequence “GGUCACGUCUCAAUCAACUCCACAGAGGGGGGGAAAACCCCUUUACCCUCCUAAUCAACAGCUCGCAGUCAAG” has a binding signal (log2 fold change) of 0.215.
“GGUCACGUCUCAAUCAACUCUACUUCCAGGGAAAUCCCUGGUUAUCUCAACAGCUCGCAGUCAAG” was tested, and the binding signal (log2 fold change) was 0.238.
“GGUCACGUCUCAAUCAACUCAUUCCCAGGAGUUUGCUCCUGCUAUUUCAACAGCUCGCAGUCAAG” was tested, and the binding signal (log2 fold change) was -0.142.
For “GGUCACGUCUCAAUCAACUCUUCUUCAGGAGUUUACUCCUGCUUUUUCAACAGCUCGCAGUCAAG”, the binding signal (log2 fold change) was -0.114.
“GGUCACGUCUCAAUCAACUCAACUUCAGGAGUUUCCUCCUGUUAACUCAACAGCUCGCAGUCAAG” showed a binding signal (log2 fold change) of -0.023.
“GGUCACGUCUCAAUCAACUCAUCCUCCAGGGAAAACCCUGGUAAUUUCAACAGCUCGCAGUCAAG” gave a binding signal (log2 fold change) of 0.126.
In the case of “GGUCACGUCUCAAUCAACUCUUUCCCAGGAGUUUCCUCCUGCAAAUUCAACAGCUCGCAGUCAAG”, the binding signal (log2 fold change) is reported as 0.11.
For “GGUCACGUCUCAAUCAACUCUAUGUCAGGAGUUUCCUCCUGCUUUUUCAACAGCUCGCAGUCAAG”, the binding signal (log2 fold change) was 0.00272.
“GGUCACGUCUCAAUCAACUCCAUAGAGGGGGGGAAAACCCCUUUACCCUCAAAUUCAACAGCUCGCAGUCAAG” gave a binding signal (log2 fold change) of -0.366.
“GGUCACGUCUCAAUCAACUCAUCCCCCAGGGAAAUCCCUGGCAAACUCAACAGCUCGCAGUCAAG” gave a binding signal (log2 fold change) of -0.194.
